Measured values: PubChem BioAssay AID938 (National Center for Advancing Translational Sciences (NCATS), 2007)
The campaign covered roughly 73,000 compounds. About 1,800 (2.5%) were called active. The shares of active, inactive and inconclusive entries below differ from those in the screen. The call rests on the fitted dose curve; in most records, active means well fitted activation curve with a large enough effect; inconclusive means small, poorly fitted or top-dose-only effect; inactive means no such curve, though single readings can be large or run the other way. Potencies of inconclusive entries are left out as doubtful fits.

Experiment: qHTS Assay for Agonists of the Thyroid Stimulating Hormone Receptor: Activators of Intracellular cAMP Concentrations in Parental HEK 293; further: nearly all actives have a fitted effect of over 55% in size; on activation: % of control where 0% means no effect
Details: parental HEK293 CNG cAMP sensor, membrane potential fluorescence; activation: at 57.1 µM (top of the series) unless noted
Method in brief: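 Parental HEK 293 cells stably expressing a cAMP-gated CNG channel were loaded with membrane potential dye containing 100 uM RO 20-1724 for 60 min. Compound added for 30 min; depolarization read as fluorescence intensity at 590 nm.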
Potency means the concentration at half of the fitted maximal effect; tags describe the fitted curve by direction and shape.

**Q.** Which Potency does the source give for `O=C(CSc1nnc(-c2cccs2)n1-c1ccccc1)N1CCN(C(=O)c2ccco2)CC1` here?
**A.** inconclusive [activator, partial curve, poor fit]

**Q.** Which Potency does the source give for `O=C(Nc1ccc(SC(F)F)cc1)c1ccc2nccnc2c1` here?
**A.** inactive

**Q.** Which Potency does the source give for `O=c1c(-c2ccccc2)nc2cnc(Nc3ccccc3)nc2n1Cc1cccs1` here?
**A.** inactive

**Q.** With `N#CCCn1c(=O)cnc2cnc(Nc3ccccc3)nc21` as the compound, how does the Potency read?
**A.** inactive

**Q.** For `Brc1ccccc1C1=Nn2c(nnc2-c2ccccc2)SC1`, which Potency is on record?
**A.** inconclusive [activator, single point]

**Q.** Which Potency does the source give for `COc1cc2cc(Oc3ccc4ccc(=O)oc4c3)c(=O)oc2cc1O` here?
**A.** inactive

**Q.** Which Potency does the source give for `CCOC(=O)Cn1c(CN2CCN(c3cccc(Cl)c3)CC2)nc2c1c(=O)[nH]c(=O)n2C` here?
**A.** active: 20 µM

**Q.** With `COc1ccc(NCc2nnc(SCC(=O)Nc3cc(C)cc(C)c3)o2)cc1` as the compound, how does the Potency read?
**A.** inactive

**Q.** With `CN(C)c1ncc2nc(-c3ccccc3)c(=O)n(C3CC3)c2n1` as the compound, how does the Potency read?
**A.** inconclusive [activator, full curve, poor fit]

**Q.** Which Potency does the source give for `CCN(CC)C(=O)CSc1nc2ccccc2c(=O)n1-c1cccc(OC)c1` here?
**A.** inconclusive [activator, partial curve]

**Q.** Which Potency does the source give for `CCOC(=O)Cn1c(=O)oc2cc(S(=O)(=O)NCCCc3ccccc3)ccc21` here?
**A.** inconclusive [activator, partial curve]

**Q.** With `c1ccc(CCCNc2nnnc3ccccc23)cc1` as the compound, how does the activation read?
**A.** inactive: 18.7% [at 11.4 µM]

**Q.** For `CC(C)CC(C(=O)Nc1oc(-c2ccco2)c(-c2ccco2)c1C#N)N1C(=O)c2ccccc2C1=O` (centres undefined), which Potency is on record?
**A.** inactive

**Q.** With `CCOc1ccccc1NC(=O)CN1C(=O)COc2ccc(Cl)cc21` as the compound, how does the Potency read?
**A.** inconclusive [activator, partial curve, poor fit]

**Q.** For `Cn1c(=O)oc2cc(S(=O)(=O)N3CCCC3)ccc21`, which Potency is on record?
**A.** inconclusive [activator, single point]

**Q.** With `CC(N)=NCCCC[C@H](N)C(=O)O` as the compound, how does the Potency read?
**A.** inactive

**Q.** With `Cn1cccc1C(=O)N1CCC2(CC1)CN(C(c1ccccc1)c1ccccc1)C2` as the compound, how does the Potency read?
**A.** inconclusive [activator, full curve]

**Q.** For `CCn1c(SCC(=O)Nc2ccccc2-c2ccccc2)nnc1-c1ccoc1C`, which Potency is on record?
**A.** inconclusive [activator, partial curve]

**Q.** For `CCOC(=O)CCc1c(C)nc(SCCCn2c(=O)[nH]c3ccccc32)c(C#N)c1C`, which Potency is on record?
**A.** inconclusive [activator, single point]

**Q.** With `O=c1c(-c2cccc(F)c2)nc2cncnc2n1C1CC1` as the compound, how does the Potency read?
**A.** inactive

**Q.** Which Potency does the source give for `Cc1ccc(NC(=O)COC(=O)c2ccc3c(c2)NC(=O)C2CCCN32)cc1` (centres undefined) here?
**A.** inactive

**Q.** With `C=CCn1c(SCC(=O)NCCCC)nc2scc(-c3ccco3)c2c1=O` as the compound, how does the Potency read?
**A.** inconclusive [activator, single point]

**Q.** Which Potency does the source give for `C[C@H](CCC(=O)O)[C@H]1CC[C@@H]2[C@H]3[C@@H](CC[C@@]21C)[C@]1(C)CC[C@H](O)C[C@@H]1C[C@@H]3O` here?
**A.** inactive

**Q.** Which Potency does the source give for `O=C(NCc1ccco1)c1cccc(-c2nnc(-c3ccccc3)o2)c1` here?
**A.** inconclusive [activator, single point]

**Q.** Which Potency does the source give for `CC(C)(C)n1ncc2c(=O)n(Cc3ccc(Cl)cc3Cl)cnc21` here?
**A.** inconclusive [activator, partial curve]

**Q.** For `O=C(Nc1ccc(NC(=O)C2CCCCC2)cn1)c1ccco1`, which Potency is on record?
**A.** inactive

**Q.** For `CCOc1ncccc1C(=O)Oc1ccc2c(c1)OCO2`, which Potency is on record?
**A.** inconclusive [activator, single point]

**Q.** Which Potency does the source give for `CCOC(=O)C(CC)Sc1ncnc2nc[nH]c12` (centres undefined) here?
**A.** inconclusive [activator, single point]

**Q.** Which Potency does the source give for `Cc1nc2cnc(N(C)C)nc2n(C[C@H]2CCCO2)c1=O` here?
**A.** inconclusive [activator, single point]

**Q.** With `CCOC(=O)CNC(=O)C1CCCN(c2ncccn2)C1` (centres undefined) as the compound, how does the Potency read?
**A.** inconclusive [activator, single point]

**Q.** Which Potency does the source give for `CCOC(=O)C1=C(C)NC(=O)NC1c1ccc2c(c1)OCCO2` (centres undefined) here?
**A.** inactive

**Q.** For `O=C(NCCO)c1scc2c1OCCO2`, which Potency is on record?
**A.** inconclusive [activator, single point]

**Q.** With `CN(Cc1ccco1)c1cc(-c2ccccc2C(F)(F)F)ncn1` as the compound, how does the Potency read?
**A.** inactive

**Q.** With `CN(Cc1ccccc1)C(=O)c1ccc2c(c1)OCCO2` as the compound, how does the Potency read?
**A.** inconclusive [activator, single point]

**Q.** For `Cc1noc(C)c1-c1nc(N2CCN(C)CC2)c2ccccc2n1`, which Potency is on record?
**A.** inconclusive [activator, partial curve]

**Q.** Which Potency does the source give for `COc1cc2c(=O)n(Cc3ccccc3)c(=O)n(CC(=O)C(C)(C)C)c2cc1OC` here?
**A.** inconclusive [activator, partial curve]

**Q.** Which Potency does the source give for `CCOc1cc2[nH]c(=O)n(CCCCC(=O)N3CCCCCC3)c(=O)c2cc1OCC` here?
**A.** inconclusive [activator, single point]

**Q.** Which Potency does the source give for `O=C(c1csnn1)N1CCC2(CCCN(c3cccc(-c4ccccc4)c3)C2)CC1` here?
**A.** inconclusive [activator, single point]

**Q.** For `CCCn1nnnc1SCC(=O)NCc1ccc2c(c1)OCO2`, which Potency is on record?
**A.** inactive

**Q.** Which Potency does the source give for `C=CCOC(=O)C1C(=O)CC(C)(O)C(C(=O)OCC=C)C1c1ccc(OC)cc1` (centres undefined) here?
**A.** inconclusive [activator, partial curve]

**Q.** For `O=C(Nc1ccc(Cl)cc1F)c1ccc(COc2c(F)c(F)c(F)c(F)c2F)o1`, which Potency is on record?
**A.** inconclusive [activator, single point]

**Q.** For `CC(=O)c1cccc(NC(=O)Cc2cccs2)c1`, which activation is on record?
**A.** inactive: 2.87% [at 11.4 µM]

**Q.** For `CCc1cc2c(=O)n(Cc3ccco3)c(SCc3c(C)noc3C)nc2s1`, which Potency is on record?
**A.** inconclusive [activator, partial curve]

**Q.** With `CCN1CCC[C@@H](OC(=O)C(c2ccccc2)c2ccccc2)C1` as the compound, how does the Potency read?
**A.** inactive

**Q.** With `O=C(CCCOc1ccccc1)Nc1ccncc1` as the compound, how does the Potency read?
**A.** inconclusive [activator, partial curve]

**Q.** For `O=C(c1n[nH]c(=O)c2ccccc12)N1CCN(c2ccc(F)cc2)CC1`, which Potency is on record?
**A.** inconclusive [activator, single point]

**Q.** Which Potency does the source give for `Nc1ccc(-c2nc3ccccc3[nH]2)cc1` here?
**A.** inactive

**Q.** For `CCOC(=O)c1cnn2c(C(F)(F)F)cc(-c3ccccc3)nc12`, which Potency is on record?
**A.** inconclusive [activator, partial curve]

**Q.** Which Potency does the source give for `Cc1cc2cc(CN(Cc3nnnn3C3CCCCC3)CC3CCCO3)c(=O)[nH]c2cc1C` (centres undefined) here?
**A.** inconclusive [activator, partial curve]

**Q.** With `C(=N\n1cnnc1)/c1cn(Cc2ccccc2)c2ccccc12` as the compound, how does the Potency read?
**A.** inactive

**Q.** With `O=C(N/N=C1/C[C@@H](O)[C@@H](O)[C@@H]2[C@@H]3C(=O)N(Cc4ccccc4)C(=O)[C@H]3CC[C@H]12)OCc1ccccc1` as the compound, how does the activation read?
**A.** inactive: 0.1% [at 11.4 µM]

**Q.** Which Potency does the source give for `COc1ccc2c(c1OC)C(=O)O[C@@H]2[C@H]1c2c(cc3c(c2OC)OCO3)CCN1C` here?
**A.** inactive

**Q.** With `CCn1c(SCC(=O)c2cc(OC)ccc2OC)nnc1-c1ccncc1` as the compound, how does the Potency read?
**A.** active: 25.1 µM

**Q.** Which Potency does the source give for `CCCC(=O)Nc1cc(Cl)ccc1N1CCN(C(=O)CC)CC1` here?
**A.** inconclusive [activator, partial curve]

**Q.** With `O=S(=O)(NCCSc1ccccc1)c1ccc2c(c1)OCCO2` as the compound, how does the Potency read?
**A.** inconclusive [activator, partial curve]

**Q.** With `O=C(CSc1nnnn1Cc1ccccc1)c1ccccc1` as the compound, how does the Potency read?
**A.** active: 31.6 µM

**Q.** Which Potency does the source give for `Clc1ccc(Cn2cc(Br)cn2)cc1Cl` here?
**A.** inconclusive [activator, partial curve]

**Q.** With `c1ccc2oc(SCc3nc4ccccc4s3)nc2c1` as the compound, how does the Potency read?
**A.** inconclusive [activator, single point]

**Q.** For `COc1ccc(C)cc1NC(=O)CN1CCN(c2ccccc2F)CC1`, which Potency is on record?
**A.** active: 15.8 µM

**Q.** With `COC(=O)c1cc2sccc2n1CC(=O)Nc1ccc(OC)c(OC)c1OC` as the compound, how does the Potency read?
**A.** inactive

**Q.** For `COc1ccc(-c2ccc(-c3noc(-c4ccco4)n3)c(OC)n2)cc1`, which Potency is on record?
**A.** inactive

**Q.** For `COC(=O)Cc1c(C)c2cc(Cl)c(OC(=O)c3ccco3)cc2oc1=O`, which Potency is on record?
**A.** inactive

**Q.** With `Cc1cccc(N2CCN(c3nc4ccccc4n4cnnc34)CC2)c1C` as the compound, how does the Potency read?
**A.** inactive

**Q.** With `Cn1c(=O)c(-c2cccc(Cl)c2)nc2cncnc21` as the compound, how does the Potency read?
**A.** inactive

**Q.** Which Potency does the source give for `COC(=O)[C@@]1(Cc2ccc(F)cc2)[C@H]2c3cc(C(=O)N(C)C)n(CCO)c3C[C@H]2CN1C(=O)c1ccccc1` here?
**A.** inactive

**Q.** Which Potency does the source give for `Cc1nc(NC(=O)CN2CCOCC2)sc1-c1ccccc1` here?
**A.** inconclusive [activator, partial curve]

**Q.** Which Potency does the source give for `COc1ccccc1-c1cc(N(C)Cc2ccco2)ncn1` here?
**A.** inactive

**Q.** Which Potency does the source give for `O=C1CCCCC1Sc1nnc(Cc2cccs2)n1CCc1ccccc1` (centres undefined) here?
**A.** active: 10 µM

**Q.** For `O=C(c1cccc(F)c1)N1CCC[C@@]2(CCN(c3ccccn3)C2)C1`, which Potency is on record?
**A.** inconclusive [activator, partial curve]

**Q.** With `CCCOc1ccc(Cn2c(=O)oc3ccc(C)cc32)cc1OC` as the compound, how does the Potency read?
**A.** inconclusive [activator, single point]

**Q.** Which Potency does the source give for `c1cc2c3c(c1)ccc1cccc(c13)C2` here?
**A.** inconclusive [activator, partial curve, poor fit]

**Q.** Which Potency does the source give for `Cc1cc(C(=O)CNCc2ccco2)c(C)n1-c1ccc(F)cc1` here?
**A.** inconclusive [activator, full curve]

**Q.** For `CC[C@H](C)C(=O)O[C@@H]1CCC=C2C=C[C@H](C)[C@@H](CC[C@H]3C[C@@H](O)CC(=O)O3)[C@H]21`, which Potency is on record?
**A.** inactive

**Q.** With `COc1cc(O)c2c(O)c3c(c4c2c1[C@@]1(C4)C(C)=CCCC1(C)C)[C@H](O)[C@@]1(O)CC(=O)C(C(N)=O)=C(O)[C@]1(O)C3=O` as the compound, how does the activation read?
**A.** inactive: 12.9% [at 11.4 µM]
